# Measured values reported in the supplement of paper PMC13380429.
# Experiments:
# Conditions in all cases: 72 h
# [1] = tested on: Caco-2; test: cell viability relative to DMSO; higher = less toxic
# [2] = tested on: Calu-3; test: as above
# [3] = tested on: U2OS; test: as above
# [4] = tested on: Vero E6; test: as above
# [5] = tested on: HepG2; test: as above
# [6] = tested on: Caco-2; test: relative viability EC50 (midpoint between 100% and the lowest measured viability); higher = less toxic
# [7] = tested on: Calu-3; test: as above
# [8] = tested on: U2OS; test: as above
# [9] = tested on: Vero E6; test: as above
# [10] = tested on: HepG2; test: as above
# [11] = tested on: Caco-2; test: drug sensitivity score (DSS) for viability; higher = more toxic; extreme values may be limits of the assay
# [12] = tested on: Calu-3; test: as above
# [13] = tested on: U2OS; test: as above
# [14] = tested on: Vero E6; test: as above
# [15] = tested on: HepG2; test: as above
smiles,measurement,setting,value
CCC(C)C(C(=O)OCC[N+](C)(CC)CC)c1ccccc1 (stereo not given) [valethamate],cell viability,[1]; 1 nM,96.7%
same,cell viability,[1]; 10 nM,93.2%
same,cell viability,[1]; 100 nM,101%
same,cell viability,[1]; 1000 nM,105%
same,cell viability,[1]; 10000 nM,95.2%
same,cell viability,[2]; 1 nM,90.5%
same,cell viability,[2]; 10 nM,99%
same,cell viability,[2]; 100 nM,103%
same,cell viability,[2]; 1000 nM,103%
same,cell viability,[2]; 10000 nM,102%
same,cell viability,[3]; 1 nM,99.2%
same,cell viability,[3]; 10 nM,93.5%
same,cell viability,[3]; 100 nM,100%
same,cell viability,[3]; 1000 nM,99%
same,cell viability,[3]; 10000 nM,108%
same,cell viability,[4]; 1 nM,99.3%
same,cell viability,[4]; 10 nM,99.1%
same,cell viability,[4]; 100 nM,104%
same,cell viability,[4]; 1000 nM,106%
same,cell viability,[4]; 10000 nM,94.4%
same,cell viability,[5]; 1 nM,104%
same,cell viability,[5]; 10 nM,91%
same,cell viability,[5]; 100 nM,108%
same,cell viability,[5]; 1000 nM,87%
same,cell viability,[5]; 10000 nM,95.8%
same,relative viability EC50,[6],> 10 µM
same,relative viability EC50,[7],> 10 µM
same,relative viability EC50,[8],> 10 µM
same,relative viability EC50,[9],> 10 µM
same,relative viability EC50,[10],> 10 µM
same,drug sensitivity score,[11],0
same,drug sensitivity score,[12],0
same,drug sensitivity score,[13],0
same,drug sensitivity score,[14],0
same,drug sensitivity score,[15],0
